# Laboratory results published in the supplement of paper PMC8728848.
# Some of the results follow.
# B1: PILRa (Homo sapiens), Q9UKJ1 (protein)
# chain: MGRPLLLPLLPLLLPPAFLQPSGSTGSGPSYLYGVTQPKHLSASMGGSVEIPFSFYYPWELATAPDVRISWRRGHFHRQSFYSTRPPSIHKDYVNRLFLNWTEGQKSGFLRISNLQKQDQSVYFCRVELDTRSSGRQQWQSIEGTKLSITQAVTTTTQRPSSMTTTWRLSSTTTTTGLRVTQGKRRSDSWHISLETAVGVAVAVTVLGIMILGLICLLRWRRRKGQQRTKATTPAREPFQNTEEPYENIRNEGQNTDPKLNPKDDGIVYASLALSSSTSPRAPPSHRPLKSPQNETLYSVLKA
# Legend:
# Experiment in all cases: glycan array binding signal (z-score within array); higher = stronger binding
# Conditions in all cases: glycan notation: IUPAC condensed, linker removed
# [1] = target: Gal(b1-3)GalNAc(b1-4)[Neu5Ac(a2-3)]Gal(b1-4)Glc
# Outline: (§1)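 The binding signal is a Z-score computed within each array and averaged over linkers. Arrays of the same protein sequence at different concentrations or buffers were also averaged together. Data originate from 3228 arrays in the Consortium for Functional Glycomics database, kept only where the protein sequence was available.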
# Gal(b1-3)GlcNAc = target: Gal(b1-3)GlcNAc
# Outline: as §1
# [2] = target: Gal(b1-3)GlcNAc(a1-6)Gal(b1-4)GlcNAc
# Outline: as §1
# [3] = target: Gal(b1-3)GlcNAc(b1-2)Man(a1-3)[Gal(b1-3)GlcNAc(b1-2)Man(a1-6)]Man(b1-4)GlcNAc(b1-4)GlcNAc
# Outline: as §1
# [4] = target: Gal(b1-3)GlcNAc(b1-2)Man(a1-3)[Gal(b1-3)GlcNAc(b1-2)Man(a1-6)]Man(b1-4)GlcNAc(b1-4)[Fuc(a1-6)]GlcNAc
# Outline: as §1
# [5] = target: Gal(b1-3)GlcNAc(b1-2)[Gal(b1-3)GlcNAc(b1-6)]Man(a1-6)[Gal(b1-3)GlcNAc(b1-2)Man(a1-3)]Man(b1-4)GlcNAc(b1-4)GlcNAc
# Outline: as §1
# [6] = target: Gal(b1-3)GlcNAc(b1-3)Gal(b1-3)GlcNAc
# Outline: as §1
# [7] = target: Gal(b1-3)GlcNAc(b1-3)Gal(b1-4)Glc
# Outline: as §1
# [8] = target: Gal(b1-3)GlcNAc(b1-3)Gal(b1-4)GlcNAc
# Outline: as §1
# [9] = target: Gal(b1-3)GlcNAc(b1-3)Gal(b1-4)GlcNAc(b1-6)[Gal(b1-3)GlcNAc(b1-3)]Gal(b1-4)Glc
# Outline: as §1
# [10] = target: Gal(b1-3)GlcNAc(b1-3)Gal(b1-4)[Fuc(a1-3)]GlcNAc(b1-6)[Gal(b1-3)GlcNAc(b1-3)]Gal(b1-4)Glc
# Outline: as §1
# [11] = target: Gal(b1-3)GlcNAc(b1-3)GalNAc
# Outline: as §1
# [12] = target: Gal(b1-3)GlcNAc(b1-6)Gal(b1-4)GlcNAc
# Outline: as §1
# [13] = target: Gal(b1-3)[Fuc(a1-4)]GlcNAc
# Outline: as §1
# [14] = target: Gal(b1-3)[Fuc(a1-4)]GlcNAc(b1-2)Man(a1-3)[Gal(b1-3)[Fuc(a1-4)]GlcNAc(b1-2)Man(a1-6)]Man(b1-4)GlcNAc(b1-4)GlcNAc
# Outline: as §1
# [15] = target: Gal(b1-3)[Fuc(a1-4)]GlcNAc(b1-2)Man(a1-3)[Gal(b1-3)[Fuc(a1-4)]GlcNAc(b1-2)Man(a1-6)]Man(b1-4)GlcNAc(b1-4)[Fuc(a1-6)]GlcNAc
# Outline: as §1
# [16] = target: Gal(b1-3)[Fuc(a1-4)]GlcNAc(b1-3)Gal(b1-3)[Fuc(a1-4)]GlcNAc
# Outline: as §1
# [17] = target: Gal(b1-3)[Fuc(a1-4)]GlcNAc(b1-3)Gal(b1-4)GlcNAc
# Outline: as §1
# [18] = target: Gal(b1-3)[Fuc(a1-4)]GlcNAc(b1-3)Gal(b1-4)[Fuc(a1-3)]GlcNAc
# Outline: as §1
# [19] = target: Gal(b1-3)[GlcNAc(b1-6)]GalNAc
# Outline: as §1
# [20] = target: Gal(b1-3)[Neu5Ac(a2-6)]GalNAc
# Outline: as §1
# [21] = target: Gal(b1-3)[Neu5Ac(a2-6)]GlcNAc(b1-6)Gal(b1-4)Glc
# Outline: as §1
# [22] = target: Gal(b1-3)[Neu5Ac(b2-6)]GalNAc
# Outline: as §1
# Gal(b1-4)Gal = target: Gal(b1-4)Gal
# Outline: as §1
# [23] = target: Gal(b1-4)GalNAc(a1-3)[Fuc(a1-2)]Gal(b1-4)GlcNAc
# Outline: as §1
# [24] = target: Gal(b1-4)GalNAc(b1-3)[Fuc(a1-2)]Gal(b1-4)GlcNAc
# Outline: as §1
# Gal(b1-4)Glc = target: Gal(b1-4)Glc
# Outline: as §1
# Gal(b1-4)Glc6S = target: Gal(b1-4)Glc6S
# Outline: as §1
# Gal(b1-4)GlcNAc = target: Gal(b1-4)GlcNAc
# Outline: as §1
# [25] = target: Gal(b1-4)GlcNAc(a1-6)Gal(b1-4)GlcNAc
# Outline: as §1
# [26] = target: Gal(b1-4)GlcNAc(b1-2)Man(a1-3)Man(b1-4)GlcNAc(b1-4)GlcNAc
# Outline: as §1
# [27] = target: Gal(b1-4)GlcNAc(b1-2)Man(a1-3)[Gal(b1-4)GlcNAc(b1-2)Man(a1-6)]Man(b1-4)GlcNAc(b1-4)GlcNAc
# Outline: as §1
# [28] = target: Gal(b1-4)GlcNAc(b1-2)Man(a1-3)[Gal(b1-4)GlcNAc(b1-2)Man(a1-6)]Man(b1-4)GlcNAc(b1-4)[Fuc(a1-6)]GlcNAc
# Outline: as §1
# [29] = target: Gal(b1-4)GlcNAc(b1-2)Man(a1-3)[Gal(b1-4)GlcNAc(b1-2)][GlcNAc(b1-4)]Man(b1-4)GlcNAc(b1-4)GlcNAc
# Outline: as §1
# [30] = target: Gal(b1-4)GlcNAc(b1-2)Man(a1-3)[GlcNAc(b1-2)Man(a1-6)]Man(b1-4)GlcNAc(b1-4)GlcNAc
# Outline: as §1
# [31] = target: Gal(b1-4)GlcNAc(b1-2)Man(a1-3)[Man(a1-6)]Man(b1-4)GlcNAc(b1-4)GlcNAc
# Outline: as §1
# [32] = target: Gal(b1-4)GlcNAc(b1-2)Man(a1-6)Man(b1-4)GlcNAc(b1-4)GlcNAc
# Outline: as §1
# [33] = target: Gal(b1-4)GlcNAc(b1-2)Man(a1-6)[GlcNAc(b1-2)Man(a1-3)]Man(b1-4)GlcNAc(b1-4)GlcNAc
# Outline: as §1
binder,measurement,setting,value
B1,glycan array binding signal (z-score),[1],-0.382
same,glycan array binding signal (z-score),Gal(b1-3)GlcNAc,-0.077
same,glycan array binding signal (z-score),[2],-0.188
same,glycan array binding signal (z-score),[3],-0.224
same,glycan array binding signal (z-score),[4],-0.179
same,glycan array binding signal (z-score),[5],-0.133
same,glycan array binding signal (z-score),[6],0.263
same,glycan array binding signal (z-score),[7],-0.074
same,glycan array binding signal (z-score),[8],-0.248
same,glycan array binding signal (z-score),[9],0.017
same,glycan array binding signal (z-score),[10],-0.214
same,glycan array binding signal (z-score),[11],-0.173
same,glycan array binding signal (z-score),[12],-0.136
same,glycan array binding signal (z-score),[13],0.066
same,glycan array binding signal (z-score),[14],0.034
same,glycan array binding signal (z-score),[15],-0.145
same,glycan array binding signal (z-score),[16],-0.153
same,glycan array binding signal (z-score),[17],-0.315
same,glycan array binding signal (z-score),[18],-0.112
same,glycan array binding signal (z-score),[19],-0.213
same,glycan array binding signal (z-score),[20],-0.098
same,glycan array binding signal (z-score),[21],0.123
same,glycan array binding signal (z-score),[22],-0.21
same,glycan array binding signal (z-score),Gal(b1-4)Gal,-0.244
same,glycan array binding signal (z-score),[23],-0.252
same,glycan array binding signal (z-score),[24],-0.011
same,glycan array binding signal (z-score),Gal(b1-4)Glc,-0.064
same,glycan array binding signal (z-score),Gal(b1-4)Glc6S,0.053
same,glycan array binding signal (z-score),Gal(b1-4)GlcNAc,-0.173
same,glycan array binding signal (z-score),[25],-0.276
same,glycan array binding signal (z-score),[26],-0.196
same,glycan array binding signal (z-score),[27],-0.184
same,glycan array binding signal (z-score),[28],-0.268
same,glycan array binding signal (z-score),[29],-0.113
same,glycan array binding signal (z-score),[30],-0.28
same,glycan array binding signal (z-score),[31],-0.217
same,glycan array binding signal (z-score),[32],-0.255
same,glycan array binding signal (z-score),[33],-0.376
